This is an account of results in the supplement of paper PMC4604168 (melanoma cell lines).

The list shows a part of the results. Single values are uncertain, as repeats are few or missing.
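Further: cell number obtained by counting DAPI-stained nuclei in high-throughput microscope images with image analysis software, screen run in 1,536-well plates.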

This experiment deals with IPC-298. Nature of the experiment: cell count relative to DMSO control; melanoma cells; higher = more viable cells. Particulars: library dose: low library concentration; 72 h.
Consider `Cn1c(Nc2ccc(C(F)(F)F)cc2)nc2cc(Oc3ccnc(-c4ncc(C(F)(F)F)[nH]4)c3)ccc21` + Nc1cccc2c1CN(C1CCC(=O)NC1=O)C2=O [lenalidomide] (first compound 0.08 µM, partner dose 1 µM), for which the cell count was 60.6%.

As for `Nc1cccc2c1CN(C1CCC(=O)NC1=O)C2=O` (stereo unspecified) [lenalidomide] + Cn1nnc2c(C(N)=O)ncn2c1=O [temozolomide] (first compound 1 µM, partner dose 2 µM), the cell count came to 94.9%. Compound `O=C(CCCCCCC(=O)Nc1ccccc1)NO` [vorinostat] + COc1cc(Nc2ncc(F)c(Nc3ccc4c(n3)NC(=O)C(C)(C)O4)n2)cc(OC)c1OC [Tamatinib] (first compound 0.08 µM, partner dose 0.4 µM) registered a cell count of 88.7%. Turning to `Cn1c(Nc2ccc(C(F)(F)F)cc2)nc2cc(Oc3ccnc(-c4ncc(C(F)(F)F)[nH]4)c3)ccc21` + Cn1cncc1[C@@](N)(c1ccc(Cl)cc1)c1ccc2c(c1)c(-c1cccc(Cl)c1)cc(=O)n2C [tipifarnib] (first compound 0.08 µM, partner dose 0.01 µM), the cell count worked out at 56.9%.

For `C#Cc1cccc(Nc2ncnc3cc(OCCOC)c(OCCOC)cc23)c1` [erlotinib] + Cn1c(Nc2ccc(C(F)(F)F)cc2)nc2cc(Oc3ccnc(-c4ncc(C(F)(F)F)[nH]4)c3)ccc21 [CHIR265] (first compound 0.8 µM, partner dose 0.08 µM), the cell count amounted to 64.6%. `Clc1ccc(Nc2nnc(Cc3ccncc3)c3ccccc23)cc1` [vatalanib] + C#Cc1cccc(Nc2ncnc3cc(OCCOC)c(OCCOC)cc23)c1 [erlotinib] (first compound 2 µM, partner dose 0.8 µM) had a cell count of 90.1%.
